Source: the supplement of paper PMC10126150
Sequences with one replicate were seen in a single cluster, so their values are uncertain.

Test system: ATP
Experiment: switch fluorescence ratio, 500 uM ATP over buffer (Cy3 cluster intensity, sum of 5 cycles each) (fold (ratio)); higher = stronger signal-on switching upon ATP binding; sequences stand for … in TCGTCGGCAGCGTCAGATGTGTATAAGAGACAGTTTTTTTTTTTTTTTTTTTTTTTTT…TC
Conditions: aptamer strand: ATP DNA aptamer (quencher-CACCTGGGGGAGTATTGCGGAGGAAGG + anchor), 100 nM annealed; ATP concentration: 500 uM; one replicate
How it was run: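 Switching-strand clusters labelled with Cy3 on a modified Illumina MiSeq flow-cell were annealed to 100 nM quencher-labelled ATP aptamer, imaged in selection buffer, and re-imaged after 15 min with 500 uM ATP at 22 °C. This was done over five cycles with NaOH stripping and re-annealing in between. The fluorescence ratio is summed target-cycle over summed buffer-cycle Cy3 intensity per cluster, averaged per switch-domain sequence, excluding clusters outside 100-1000 RFU.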
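Note: ATP exposure 15 min at 22 °C before imaging.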

Sequence	switch fluorescence ratio
GGTGCGTATT	0.939
CACGAAGGCT	1.06
ACGCCCATAT	1.28
TCCAAGCGGG	0.991
GTGTCCATAT	0.986
AGTTGGTAAA	0.973
GGGTTTGTGC	1.03
TATTTCCCG	1.01
GGTTCTGGGG	0.981
TTTGCGAGGA	0.972
AACAAACGAG	1.1
TCAGTTGTAG	1.01
TGCTAAGGGG	1.02
GGGCCATACA	0.997
TTCTCATCGG	1
TTCCCTACAT	1.02
TTAGTCCGAT	0.988
CCGGATGTT	1.23
AGCTCGTCTC	0.971
ATTGGACGGA	1.02
GTGGGGCCAT	1.01
ACTGGTTAGG	1.02
ATTGGCTCGG	0.973

Sequence	switch fluorescence ratio
TAGGATTGAG	0.987
GAGTTCCGAA	1
AATACATCTC	1.03
ACCTTACAGC	1.51
GCTACGATAT	1.33
GTCGCATGCA	1.01
CGGGTATAT	1.01
AGTGTTAATT	1.03
TCCGACAGAG	1.09
CCCGCCGGTA	1.02
AAGAAAATGA	1.09
TGAGCTTGGA	0.981
AATTGGAGAG	1.01
TAGGGGCAAA	1.03
TTGCAAACCG	1.07
TATGAGATGA	0.921
GCCTATGGTG	1.2
GGTTCTGCTA	0.95
ACCCATTATT	1.03
AGATACTCAG	1.07
TGTATTTAGT	1
ATCGAGAGT	1.04
TTGCTGAATC	1.05

Sequence	switch fluorescence ratio
CCATTACGG	1.04
GGACAAGGGA	0.964
ATGGTATTAT	1.01
ATGGCCGTCA	1
CAGGGGATTC	1
GCTTCAAAGT	0.963
CGGCATCAGC	0.995
AACCAGTCGA	1
TCGGCACACT	1.14
GGCATTACGC	1.11
TCGTTTCCCG	1.01
AGATACTTGG	1
CTACTGCGAC	1.47
TTTGAGATAT	0.993
CATTACGTGG	0.966
AACAGTTTGG	0.945
GATTGCTGCG	1.05
AGGTTAAAGC	1
TAATTTTGGA	1.03
CTAATTTGCG	0.996
TTGAACTCAC	1.04
AACTTAGCCC	1.23
GTTGAGGC	0.914

Sequence	switch fluorescence ratio
TACGGCAGGC	1.15
GCGCGGAATA	1.04
AATCGTGTGG	0.901
GTAGCTTGTG	0.988
CCGGAGGCTA	3.19
TATTATCATA	1.05
CGTTGCCGT	0.942
CGGTGGCTAT	1.01
ACAGCTGCGG	0.975
TACGCGCCCC	1.07
TTTCGGTT	0.982
GTGTCGCGTT	0.985
AAGATGTCAA	0.995
AATTGCTTTA	1.02
CGGTGCGTCA	0.989
CACTAGACGT	1.28
GGTTTACCGC	0.992
ATTCAATCTC	0.976
CGATCGATGG	1.01
TCGAATCCTG	0.993
TACCATATGT	1.08
ACTGCGTACG	1.03
AGAATTCGTG	1.03

Sequence	switch fluorescence ratio
AGGGGTGTAT	0.994
GGATGTGCTT	0.969
TTTGAAATCA	1.01
GATCCGGTGC	1.09
CCATAGACA	1.01
GGAGGAACAC	1.24
GAATCCCAGG	4.03
GGCAGAAGGA	0.99
TGGTTTGGAC	1.01
TCGTCGAATG	1.02
TTGTTGGTG	0.969
GTGCGCAGTA	1.07
GAGCAGCGAC	1.03
ATACGGCGG	0.983
TAGTTTGGT	0.994
TAACGACGA	1.09
CAAAGTCCCA	0.99
TATCTAAACG	0.994
GATTCATTAC	1.27
GCAAGGGCAT	1.01
CTCGCTTTGT	1.01
CATACGCTGT	1.94
GCAGTGAGTT	0.994

Sequence	switch fluorescence ratio
GAAATGGTGT	1
AATAGTGGAT	0.988
CCGTTGACGG	1.01
CCGTCATCAA	1.56
TGGCCAATGC	1.16
AAGTGATCCA	0.976
CGACGGGATG	1.08
TCATAAAATA	0.943
ACGGTTACAC	1.24
CGGACGGAGT	0.993
CGTGGTAGTT	0.971
GACGCCACGA	1.74
ATCCCTGCTC	1.03
GTATTTTGAC	0.986
AAAGCGCCT	1.01
CGGCATCTAG	1.01
AGGTGCTCGC	0.989
GCGGTCGAGT	0.956
CCCGCCCTCG	2.67
GGAGGTCCGG	1.01
AGGATTGGCG	1.03
AGTTCAGGC	0.969
ACCTATGATC	1.06

Sequence	switch fluorescence ratio
CCGGGGCCCG	1.04
TACAAACGAT	1.23
GTTATCGTTC	0.997
AGCGGGGATT	1.07
AGTCTGGTTA	0.947
GTCCCCTGTG	2.08
TTGGATACT	1.27
TATAGACTA	1.02
CTCATTAGAC	1.1
TGGCTTTTCT	1.13
GGCTAGGCGT	1.02
CAATGACTTA	1.05
ATTTTACTTG	0.962
CACGTACTC	1.52
CGTTAAGTGC	1.08
TCGCTCCCGT	1.04
TCACAGTCGC	1.03
GCCAGAAATG	0.989
AGACTGCGGT	1.01
